Laboratory results published in the supplement of paper PMC10369915.
The list shows a part of the results. Rule as the data show it: active = 3.2 or more and inactive = the rest. Only a few entries rise above the background.
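Also: displayed peptides selected on beads carrying the immobilized SH2 domain, with library peptides lacking any tyrosine serving as negative controls.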

These binders were tested against SHP2 C-SH2 domain E139D (assay: enrichment score (SH2-bound / input frequency) (ratio); bacterial display of known human phosphotyrosine sites (pTyr-Var adds point mutants) read by sequencing; higher = stronger binding; tyrosines were phosphorylated by kinases first). Details: peptide library: Human pTyr.
For SSGGEDGYVRIHAFD [EIF3I_HUMAN_308_YA], the enrichment score was inactive: 0.612. For SHKSAVEYNIFEGME [DPYL1_HUMAN_431], the enrichment score was inactive: 1.14. With VPINLRVYSPHVLNL [DYN1_HUMAN_125] the enrichment score was inactive: 0.631. With KKLWGDRYFDPANGK [EF2_HUMAN_265] the enrichment score was inactive: 1.55. AIEWPGAYPKLMEID [ELMO1_HUMAN_18] was tested, and the enrichment score was inactive: 0.734. NEVTPRIYVGNASVA [DUSP3_HUMAN_38] was tested, and the enrichment score was inactive: 0.597. In the case of KARCELLYEGPPDDE [EF2_HUMAN_373_YA], the enrichment score is reported as inactive: 1.04. ERGDGGIYIGSIMKG [DVL2_HUMAN_295] was tested, and the enrichment score was inactive: 1.01. For VAKDKPVYDELFYTL [EHD4_HUMAN_451], the enrichment score was inactive: 0.989. In the case of SVSPDLKYVLLAADV [DPP10_HUMAN_138_YA], the enrichment score is reported as inactive: 0.999. For AKHHQDAYIRIVLEN [ELMO1_HUMAN_395], the enrichment score was inactive: 2.24. For SVSPDLKYVLLAYDV [DPP10_HUMAN_138], the enrichment score was inactive: 1.59. In the case of GGVKKPTYDPVSEDQ [ACK1_HUMAN_518], the enrichment score is reported as inactive: 1.08. NKVDDCNYAIKRIRL [E2AK3_HUMAN_619] was tested, and the enrichment score was inactive: 1.23. For EAQKLATYIQSRFAR [DYRK3_HUMAN_369_YA], the enrichment score was inactive: 1.65. In the case of GGTDEGIYDVPLLGP [EFS_HUMAN_253], the enrichment score is reported as inactive: 0.586. In the case of DGGYVQDYEDFMGGG [EIF3J_HUMAN_254], the enrichment score is reported as inactive: 0.787. With GAADSAPYDWFGDFS [ECE2_HUMAN_39] the enrichment score was inactive: 0.538.

The binders below were run against SHP2 C-SH2 domain wild-type in the same assay as above. Details: peptide library: Human pTyr.
In the case of SSGGEDGYVRIHAFD [EIF3I_HUMAN_308_YA], the enrichment score is reported as inactive: 0.993. In the case of SHKSAVEYNIFEGME [DPYL1_HUMAN_431], the enrichment score is reported as inactive: 1.12. For VPINLRVYSPHVLNL [DYN1_HUMAN_125], the enrichment score was inactive: 0.584. With KKLWGDRYFDPANGK [EF2_HUMAN_265] the enrichment score was inactive: 1.46. With AIEWPGAYPKLMEID [ELMO1_HUMAN_18] the enrichment score was inactive: 0.66. For NEVTPRIYVGNASVA [DUSP3_HUMAN_38], the enrichment score was inactive: 0.637. For KARCELLYEGPPDDE [EF2_HUMAN_373_YA], the enrichment score was inactive: 1.05. With ERGDGGIYIGSIMKG [DVL2_HUMAN_295] the enrichment score was inactive: 0.727. VAKDKPVYDELFYTL [EHD4_HUMAN_451] was tested, and the enrichment score was inactive: 0.927. In the case of SVSPDLKYVLLAADV [DPP10_HUMAN_138_YA], the enrichment score is reported as inactive: 1.11. For AKHHQDAYIRIVLEN [ELMO1_HUMAN_395], the enrichment score was inactive: 1.85. SVSPDLKYVLLAYDV [DPP10_HUMAN_138] was tested, and the enrichment score was inactive: 1.86. In the case of GGVKKPTYDPVSEDQ [ACK1_HUMAN_518], the enrichment score is reported as inactive: 1.06. NKVDDCNYAIKRIRL [E2AK3_HUMAN_619] was tested, and the enrichment score was inactive: 1.25. EAQKLATYIQSRFAR [DYRK3_HUMAN_369_YA] was tested, and the enrichment score was inactive: 1.98. GGTDEGIYDVPLLGP [EFS_HUMAN_253] was tested, and the enrichment score was inactive: 0.49. DGGYVQDYEDFMGGG [EIF3J_HUMAN_254] was tested, and the enrichment score was inactive: 0.702. GAADSAPYDWFGDFS [ECE2_HUMAN_39] was tested, and the enrichment score was inactive: 0.461.

The binders below were run against SHP2 N-SH2 domain L43F in the same assay as above. Details: peptide library: Human pTyr.
With SSGGEDGYVRIHAFD [EIF3I_HUMAN_308_YA] the enrichment score was inactive: 0.744. In the case of SHKSAVEYNIFEGME [DPYL1_HUMAN_431], the enrichment score is reported as inactive: 1.07. With VPINLRVYSPHVLNL [DYN1_HUMAN_125] the enrichment score was inactive: 0.709. For KKLWGDRYFDPANGK [EF2_HUMAN_265], the enrichment score was inactive: 1.48. For AIEWPGAYPKLMEID [ELMO1_HUMAN_18], the enrichment score was inactive: 0.766. With NEVTPRIYVGNASVA [DUSP3_HUMAN_38] the enrichment score was inactive: 0.741. KARCELLYEGPPDDE [EF2_HUMAN_373_YA] was tested, and the enrichment score was inactive: 1.24. With ERGDGGIYIGSIMKG [DVL2_HUMAN_295] the enrichment score was inactive: 0.711. VAKDKPVYDELFYTL [EHD4_HUMAN_451] was tested, and the enrichment score was inactive: 0.933. SVSPDLKYVLLAADV [DPP10_HUMAN_138_YA] was tested, and the enrichment score was inactive: 2.78. In the case of AKHHQDAYIRIVLEN [ELMO1_HUMAN_395], the enrichment score is reported as inactive: 1.66. With SVSPDLKYVLLAYDV [DPP10_HUMAN_138] the enrichment score was active: 7.81. In the case of GGVKKPTYDPVSEDQ [ACK1_HUMAN_518], the enrichment score is reported as inactive: 0.932. For NKVDDCNYAIKRIRL [E2AK3_HUMAN_619], the enrichment score was inactive: 1.17. EAQKLATYIQSRFAR [DYRK3_HUMAN_369_YA] was tested, and the enrichment score was inactive: 1.57. With GGTDEGIYDVPLLGP [EFS_HUMAN_253] the enrichment score was inactive: 0.69. In the case of DGGYVQDYEDFMGGG [EIF3J_HUMAN_254], the enrichment score is reported as inactive: 0.717. GAADSAPYDWFGDFS [ECE2_HUMAN_39] was tested, and the enrichment score was inactive: 0.478.

The binders below were run against SHP2 N-SH2 domain T42A in the same assay as above. Details: peptide library: Human pTyr.
With SSGGEDGYVRIHAFD [EIF3I_HUMAN_308_YA] the enrichment score was inactive: 0.534. In the case of SHKSAVEYNIFEGME [DPYL1_HUMAN_431], the enrichment score is reported as inactive: 1.12. VPINLRVYSPHVLNL [DYN1_HUMAN_125] was tested, and the enrichment score was inactive: 0.589. KKLWGDRYFDPANGK [EF2_HUMAN_265] was tested, and the enrichment score was inactive: 1.49. With AIEWPGAYPKLMEID [ELMO1_HUMAN_18] the enrichment score was inactive: 0.674. With NEVTPRIYVGNASVA [DUSP3_HUMAN_38] the enrichment score was inactive: 0.664. In the case of KARCELLYEGPPDDE [EF2_HUMAN_373_YA], the enrichment score is reported as inactive: 1.18. ERGDGGIYIGSIMKG [DVL2_HUMAN_295] was tested, and the enrichment score was inactive: 0.872. With VAKDKPVYDELFYTL [EHD4_HUMAN_451] the enrichment score was inactive: 1.03. For SVSPDLKYVLLAADV [DPP10_HUMAN_138_YA], the enrichment score was inactive: 2.72. For AKHHQDAYIRIVLEN [ELMO1_HUMAN_395], the enrichment score was inactive: 2.04. In the case of SVSPDLKYVLLAYDV [DPP10_HUMAN_138], the enrichment score is reported as active: 9.19. With GGVKKPTYDPVSEDQ [ACK1_HUMAN_518] the enrichment score was inactive: 1.05. NKVDDCNYAIKRIRL [E2AK3_HUMAN_619] was tested, and the enrichment score was inactive: 1.24. EAQKLATYIQSRFAR [DYRK3_HUMAN_369_YA] was tested, and the enrichment score was inactive: 1.42. GGTDEGIYDVPLLGP [EFS_HUMAN_253] was tested, and the enrichment score was inactive: 0.559. For DGGYVQDYEDFMGGG [EIF3J_HUMAN_254], the enrichment score was inactive: 0.618. In the case of GAADSAPYDWFGDFS [ECE2_HUMAN_39], the enrichment score is reported as inactive: 0.475.

The binders below were run against SHP2 N-SH2 domain T52S in the same assay as above. Details: peptide library: Human pTyr.
With SSGGEDGYVRIHAFD [EIF3I_HUMAN_308_YA] the enrichment score was inactive: 0.628. SHKSAVEYNIFEGME [DPYL1_HUMAN_431] was tested, and the enrichment score was inactive: 0.901. In the case of VPINLRVYSPHVLNL [DYN1_HUMAN_125], the enrichment score is reported as inactive: 0.687. For KKLWGDRYFDPANGK [EF2_HUMAN_265], the enrichment score was inactive: 1.83. With AIEWPGAYPKLMEID [ELMO1_HUMAN_18] the enrichment score was inactive: 0.952. NEVTPRIYVGNASVA [DUSP3_HUMAN_38] was tested, and the enrichment score was inactive: 0.72. In the case of KARCELLYEGPPDDE [EF2_HUMAN_373_YA], the enrichment score is reported as inactive: 1.32. With ERGDGGIYIGSIMKG [DVL2_HUMAN_295] the enrichment score was inactive: 0.898. With VAKDKPVYDELFYTL [EHD4_HUMAN_451] the enrichment score was inactive: 1.03. In the case of SVSPDLKYVLLAADV [DPP10_HUMAN_138_YA], the enrichment score is reported as inactive: 2.09. In the case of AKHHQDAYIRIVLEN [ELMO1_HUMAN_395], the enrichment score is reported as inactive: 2.23. SVSPDLKYVLLAYDV [DPP10_HUMAN_138] was tested, and the enrichment score was active: 5.58. With GGVKKPTYDPVSEDQ [ACK1_HUMAN_518] the enrichment score was inactive: 1.05. For NKVDDCNYAIKRIRL [E2AK3_HUMAN_619], the enrichment score was inactive: 1.29. In the case of EAQKLATYIQSRFAR [DYRK3_HUMAN_369_YA], the enrichment score is reported as inactive: 1.6. In the case of GGTDEGIYDVPLLGP [EFS_HUMAN_253], the enrichment score is reported as inactive: 0.49. For DGGYVQDYEDFMGGG [EIF3J_HUMAN_254], the enrichment score was inactive: 0.646. GAADSAPYDWFGDFS [ECE2_HUMAN_39] was tested, and the enrichment score was inactive: 0.572.

Each binder was assayed against SHP2 N-SH2 domain wild-type in the same assay as above. Details: peptide library: Human pTyr.
With SSGGEDGYVRIHAFD [EIF3I_HUMAN_308_YA] the enrichment score was inactive: 0.494. SHKSAVEYNIFEGME [DPYL1_HUMAN_431] was tested, and the enrichment score was inactive: 0.943. In the case of VPINLRVYSPHVLNL [DYN1_HUMAN_125], the enrichment score is reported as inactive: 0.561. KKLWGDRYFDPANGK [EF2_HUMAN_265] was tested, and the enrichment score was inactive: 1.75. For AIEWPGAYPKLMEID [ELMO1_HUMAN_18], the enrichment score was inactive: 0.701. For NEVTPRIYVGNASVA [DUSP3_HUMAN_38], the enrichment score was inactive: 0.754. With KARCELLYEGPPDDE [EF2_HUMAN_373_YA] the enrichment score was inactive: 1.34. For ERGDGGIYIGSIMKG [DVL2_HUMAN_295], the enrichment score was inactive: 1.1. VAKDKPVYDELFYTL [EHD4_HUMAN_451] was tested, and the enrichment score was inactive: 1.1. In the case of SVSPDLKYVLLAADV [DPP10_HUMAN_138_YA], the enrichment score is reported as inactive: 0.82. With AKHHQDAYIRIVLEN [ELMO1_HUMAN_395] the enrichment score was inactive: 2.48. With SVSPDLKYVLLAYDV [DPP10_HUMAN_138] the enrichment score was inactive: 2.08. With GGVKKPTYDPVSEDQ [ACK1_HUMAN_518] the enrichment score was inactive: 0.95. NKVDDCNYAIKRIRL [E2AK3_HUMAN_619] was tested, and the enrichment score was inactive: 1.5. In the case of EAQKLATYIQSRFAR [DYRK3_HUMAN_369_YA], the enrichment score is reported as inactive: 2.2. GGTDEGIYDVPLLGP [EFS_HUMAN_253] was tested, and the enrichment score was inactive: 0.58. DGGYVQDYEDFMGGG [EIF3J_HUMAN_254] was tested, and the enrichment score was inactive: 0.776. For GAADSAPYDWFGDFS [ECE2_HUMAN_39], the enrichment score was inactive: 0.637.
